# Measurements from PubChem BioAssay AID1345082 (National Center for Advancing Translational Sciences (NCATS), 2018).
# Among all 94,000 compounds or so, about 4,000 (4.3%) were called active. Inconclusive means that the source gave no clear call. Such entries were picked first, then a sample of the others. Calls follow the shape of the dose curve; as a rule, active = well fitted inhibition curve with a large enough effect; inconclusive = small, poorly fitted or top-dose-only effect; inactive = no such curve, though single readings can be large or run the other way. Potencies beside an inconclusive call are fits to weak or partial responses and may not hold up.
# Assay: Cytotoxic Profiling in NIH 3T3 Cell Line of Diverse Libraries Using Quantitative High-Throughput Screening; also: nearly all actives have a fitted effect of over 55% in size
# Conditions: NIH 3T3 viability, CellTiter-Glo ATP luminescence, 48-72 h; activity change, negative = cytotoxicity: at 96.7 µM (top of the series) unless noted; series mostly up to 96.7 µM
# Procedure, shortened: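 Luminescent ATP readout (CellTiter-Glo, 10 min RT) after 48 or 72 hr compound exposure of NIH 3T3 cells seeded at 400 cells/well in 1536-well format; quantitative HTS.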
# % is scaled to controls: 0 for no effect and ±100 for the full control effect; potency is read from the fitted curve at half-maximal effect; tags tell the direction and shape of the fitted curve.
SMILES,Potency,"activity change, negative = cytotoxicity",outcome
O=C(CCc1ccccc1)N1CCCC(n2cc(-c3nc(-c4ccccc4)no3)nn2)C1 (stereo unspecified),"inconclusive: 50.1 µM [inhibitor, partial curve, poor fit]",–,–
COc1ccc(NC(=O)[C@@H]2C[C@H](c3cccc(C(F)(F)F)c3)N(Cc3cnn(C)c3)C2)cc1,"inconclusive: 56.2 µM [inhibitor, single point]",–,–
COc1ccccc1-c1cc(C(=O)Nc2ccccc2Cl)c2cnn(C)c2n1,"inconclusive: 44.7 µM [inhibitor, partial curve, poor fit]",–,–
Cc1ccc(-c2cc(O)c3c(c2)CNCCO3)cc1,"inconclusive: 70.8 µM [inhibitor, partial curve, poor fit]",–,–
FC(F)(F)c1ccc2nc([C@H]3CCN(Cc4ccccn4)C3)[nH]c2c1,"inconclusive: 25.1 µM [inhibitor, full curve, poor fit]",–,–
COc1ccc(-c2noc([C@@H]3CCCN3C(=O)C3(c4ccc(OC)cc4)CC3)n2)cc1,"inconclusive: 39.8 µM [inhibitor, partial curve, poor fit]",–,–
CC(C)NC(=O)C1COC2(CCN(C(=O)c3cccc(Cl)c3)CC2)N1C(=O)c1ccc(F)cc1 (stereo unspecified),"inconclusive: 70.8 µM [inhibitor, single point]",–,–
COCC1CN(C2CCC2)CC12CCN(C(=O)c1cccc(C)c1)CC2 (stereo unspecified),–,inactive: -20%,–
COCC(=O)NC1CCC12CCN(Cc1ccc(C)o1)CC2 (stereo unspecified),"inconclusive: 70.8 µM [inhibitor, single point]",–,–
COCCN1C(=O)CCc2cc(NC(=O)c3ccc(Br)o3)ccc21,–,inactive: -15.9%,–
COc1cccc(CN2CCCC(c3nc(-c4cccnc4)no3)CCNC(=O)CC2)c1 (stereo unspecified),"inconclusive: 44.7 µM [inhibitor, partial curve, poor fit]",–,–
CN(Cc1ccc(N2CCCCC2)cc1)C(=O)c1ccc2c(c1)C(O)CCCCCN2C (stereo unspecified),"inconclusive: 35.5 µM [inhibitor, partial curve, poor fit]",–,–
O=C1CC(c2noc(-c3cccc(F)c3)n2)CN1C1CCCCC1 (stereo unspecified),"inconclusive: 39.8 µM [inhibitor, partial curve, poor fit]",–,–
COCC(=O)NC1CCC12CCN(C(=O)c1ccc(C)nc1)CC2 (stereo unspecified),–,inactive: -8.01%,–
Cc1cc(C(=O)N2CCC(c3nc(-c4ccccc4)no3)C2)n[nH]1 (stereo unspecified),"inconclusive: 28.2 µM [inhibitor, partial curve, poor fit]",–,–
COc1ccc(-c2nc(C(C)C)nc3c2CCN(C(=O)c2ccccc2Cl)CC3)cc1,"inconclusive: 50.1 µM [inhibitor, partial curve, poor fit]",–,–
O=C(CC1CCCCC1)N1CCCC(c2noc(COc3ccccc3F)n2)C1 (stereo unspecified),"inconclusive: 50.1 µM [inhibitor, partial curve, poor fit]",–,–
CC1=NS(=O)(=O)N(Cc2ccccc2)C=C1C(=O)OCc1nc(-c2cccs2)no1,"inconclusive: 35.5 µM [inhibitor, partial curve, poor fit]",–,–
CCOC(=O)C(Cc1cccc(N2CCN(C(=O)c3ccccc3C(F)(F)F)CC2)c1)OC (stereo unspecified),"inconclusive: 31.6 µM [inhibitor, partial curve, poor fit]",–,–
CO[C@@H]1COCC[C@H]1NC(=O)CCc1ccc(-c2ccc(Cl)cc2)[nH]1,"inconclusive: 50.1 µM [inhibitor, partial curve, poor fit]",–,–
Cc1cccc(S(=O)(=O)N2C[C@@H]3CCCN4CCC[C@@H]([C@H]34)[C@H]2CCCC(=O)N2CCOCC2)c1,–,–,inactive

SMILES,Potency,"activity change, negative = cytotoxicity",outcome
CN(C)[C@H]1CCCCN(C(=O)CC2CCN(Cc3ccccc3)CC2)C1,"inconclusive: 89.1 µM [inhibitor, single point]",–,–
COc1ccc(-c2nc(C(C)C)nc3c2CCN(C(=O)Cc2cccc(Cl)c2)CC3)cc1,"inconclusive: 70.8 µM [inhibitor, partial curve, poor fit]",–,–
O=C(Nc1cccc(-c2ccc(N3CCCC3)nn2)c1)c1c(F)cccc1F,"inconclusive: 39.8 µM [inhibitor, partial curve]",–,–
CN1C(=O)C2(CCN(S(=O)(=O)c3ccccc3)C2)c2ccccc21 (stereo unspecified),"inconclusive: 89.1 µM [inhibitor, partial curve]",–,–
O=C(O)CC[C@@H]1CN(C(=O)Cc2ccc(CO)cc2)CC[C@@H]1N1CCOCC1,–,inactive: 3.53%,–
Cc1ccc(NC(=O)Cn2c(-c3cnccn3)nc(C)c(C)c2=O)cc1C,"inconclusive: 56.2 µM [inhibitor, partial curve, poor fit]",–,–
O=C(NC1CC1)c1ccc2oc(-c3ccnc(Cl)c3)nc2c1,"inconclusive: 50.1 µM [inhibitor, partial curve]",–,–
COc1ncccc1-c1cc2c(ccn2Cc2ccncc2)c(N2CCOCC2)n1,"inconclusive: 89.1 µM [inhibitor, partial curve]",–,–
O=C(C1CC1)N1CCC2(CC1)CC(c1cccc(C(F)(F)F)c1)=NO2,"inconclusive: 44.7 µM [inhibitor, partial curve, poor fit]",–,–
COc1ccc(CN2C[C@@H]3OCC(=O)N(c4ccccc4)[C@@H]3C2)cc1,"inconclusive: 31.6 µM [inhibitor, partial curve, poor fit]",–,–
NC(=O)COc1cccc(CN2CCN(c3ccc(F)cc3F)CC2)c1,"inconclusive: 44.7 µM [inhibitor, partial curve, poor fit]",–,–
Fc1ccc(OC2CN(Cc3ccsc3)C2)c(F)c1,–,inactive: -26.3% [at 138 µM],–
CCCNC(=O)Cc1csc2nc(C)c(-c3cc(C)n(-c4ccc(Cl)c(Cl)c4)n3)c(=O)n12,"inconclusive: 50.1 µM [inhibitor, partial curve, poor fit]",–,–
N#Cc1cccc(CN2CC(CNC(=O)C3CCOCC3)C3(C2)CN(c2ccccc2)C3)c1 (stereo unspecified),"inconclusive: 44.7 µM [inhibitor, partial curve, poor fit]",–,–
Cc1ccc(C(=O)N2CCC23Cc2ccccc2NC3=O)cc1 (stereo unspecified),–,inactive: -18.2% [at 138 µM],–
O=C1[C@@H]2C[C@@H](CN2C(=O)C2CCOCC2)Oc2ccccc2N1Cc1ccc(OC(F)(F)F)cc1,"inconclusive: 35.5 µM [inhibitor, partial curve, poor fit]",–,–
O=C(CNC(=O)c1cccc(-c2ccc(C(F)(F)F)cc2)c1)NCc1ccc2c(c1)OCO2,–,inactive: -18.4%,–
Cn1ncc2c(N[C@@H]3CS(=O)(=O)C[C@H]3O)nc(-c3ccncc3)nc21,"inconclusive: 28.2 µM [inhibitor, partial curve, poor fit]",–,–
Cc1cnc(N2CC3CCC(C2)N3CC(F)(F)F)s1,–,inactive: -13.1%,–
COc1ncccc1-c1nccc2c(=O)cc(N(C)C3CCOCC3)oc12,"inconclusive: 39.8 µM [inhibitor, partial curve, poor fit]",–,–
Cc1[nH]nc(C(=O)N[C@@H]2COCC[C@@H]2OCc2ccccc2)c1Cl,–,inactive: -23.7%,–

SMILES,Potency,"activity change, negative = cytotoxicity",outcome
COc1cccc(-c2cc(C(=O)N3CCCCC3)c3cnn(C)c3n2)c1,–,inactive: -18.2%,–
COc1ccc(CC(=O)Nc2ccc3ncnc(N4CCCC4)c3c2)cc1Cl,"inconclusive: 44.7 µM [inhibitor, partial curve]",–,–
Cc1ccc(C(=O)N2CCC(Cc3nc(-c4cnccn4)no3)CC2)cc1,"inconclusive: 44.7 µM [inhibitor, partial curve, poor fit]",–,–
O=C(Cc1c[nH]c2ccccc12)N1CCCN(c2cc(-c3ccc(Br)cc3)[nH]n2)CC1,active: 35.5 µM,–,–
COc1cccc(-c2ccc(S(=O)(=O)N3CCSCC3)cc2)n1,"inconclusive: 39.8 µM [inhibitor, partial curve, poor fit]",–,–
O=C(Nc1cccc2ccccc12)O[C@@H]1CO[C@H]2[C@@H]1OC[C@@H]2NS(=O)(=O)c1cccs1,"inconclusive: 56.2 µM [inhibitor, partial curve, poor fit]",–,–
COC(=O)[C@H](CC1CCCCC1)NC(=O)[C@@H]1CN(C(=O)c2cccnc2)CCN1S(C)(=O)=O,–,inactive: -14.1%,–
O=C1CO[C@H]2CN(CCCc3ccccc3)C[C@H]2N1Cc1ccc(F)cc1,"inconclusive: 50.1 µM [inhibitor, partial curve, poor fit]",–,–
CC(=O)NC1CCN(c2nccc(Nc3ccccc3F)n2)CC1,"inconclusive: 89.1 µM [inhibitor, partial curve]",–,–
Cc1cccc(S(=O)(=O)N(C)CC2CCOCC2)c1,–,inactive: -8.31%,–
Cc1cc(C(=O)N2CC(C(=O)NCCc3ccncc3)C3(CCOCC3)C2)nn1C (stereo unspecified),–,–,inactive
Cc1cc(C)c(CNC(=O)c2nc(-c3ccc(F)cc3)cc3c2ccn3C(C)C)c(=O)[nH]1,active: 44.7 µM,–,–
CCOCCNC(=O)c1cc(-c2ccc(C(F)(F)F)cc2)nc2c1cnn2C,"inconclusive: 22.4 µM [inhibitor, partial curve]",–,–
O=C(c1ccccn1)N1CCC(CCOc2ccccc2F)C1 (stereo unspecified),"inconclusive: 44.7 µM [inhibitor, partial curve]",–,–
COCCOCC(=O)N1CCN(C(=O)N2CC3CC(C2)[C@H]2CCCC(=O)N2C3)CC1 (stereo partly specified),–,inactive: -3.88%,–
CCCCCCNC(=O)Cc1csc2nc(C)c(-c3cc(C)n(-c4ccccc4OC)n3)c(=O)n12,"inconclusive: 44.7 µM [inhibitor, partial curve, poor fit]",–,–
COc1cc(F)ccc1-c1nccc2c(=O)cc(N(C)C3CCOCC3)oc12,"inconclusive: 56.2 µM [inhibitor, partial curve, poor fit]",–,–
O=C1[C@H]2CC[C@H](CN(Cc3ccc(-n4ccnc4)cc3)C2)N1CC1CCC1,active: 39.8 µM,–,–
COc1ccc(-c2ccc3nc(-c4ccc(F)cc4F)oc3c2)c(OC)c1OC,"inconclusive: 44.7 µM [inhibitor, partial curve, poor fit]",–,–
